Target: HA-cbl (UniProt P22681 1-906)
Experiment: co-IP

B1: FLAG-CIN85-4F (CIN85-Y10/109/271/278F) (natural protein)
chain: not shown
For B1, which “reduction of binding relative to CIN85wt” value is on record?
Its value is about 80%.

From publication PMC3442408 (Molecular Biology of the Cell, 2012)
